Our source for the binding signal values is article PMC9911399, “Two distinct binding modes provide the RNA-binding protein RbFox with extraordinary sequence specificity”.

T1: RBFOX1 RRM (Homo sapiens, UniProt Q9NWB1 109-208)
T1 sequence: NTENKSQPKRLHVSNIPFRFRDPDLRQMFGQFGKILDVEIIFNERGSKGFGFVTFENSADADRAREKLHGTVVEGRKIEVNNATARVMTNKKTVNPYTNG

B1: CGUCAAG (DNA:RNA)
RNA: GGGAGACCGGAAUUCAGAUUGUCCCGUCAAGUUAAAUCCCGUCGUAGCCACCA
DNA 1: CAATCTGAATTCCGGTCTCCC
DNA 2: TGGTGGCTACGACGGGATT
B2: ACGCGAC (DNA:RNA)
RNA: B1 RNA with C25A, G26C, U27G, A29G, G31C
DNA 1: CAATCTGAATTCCGGTCTCCC
DNA 2: TGGTGGCTACGACGGGATT
B3: CAGAGCG (DNA:RNA)
RNA: B1 RNA with G26A, U27G, C28A, A29G, A30C
DNA 1: CAATCTGAATTCCGGTCTCCC
DNA 2: TGGTGGCTACGACGGGATT
B4: GUCAGUA (DNA:RNA)
RNA: GGGAGACCGGAAUUCAGAUUGUCCGUCAGUAUUAAAUCCCGUCGUAGCCACCA
DNA 1: CAATCTGAATTCCGGTCTCCC
DNA 2: TGGTGGCTACGACGGGATT
B5: CGUAGCG (DNA:RNA)
RNA: B1 RNA with C28A, A29G, A30C
DNA 1: CAATCTGAATTCCGGTCTCCC
DNA 2: TGGTGGCTACGACGGGATT
B6: ACUAGUG (DNA:RNA)
RNA: B4 RNA with G25A, U26C, C27U, A31G
DNA 1: CAATCTGAATTCCGGTCTCCC
DNA 2: TGGTGGCTACGACGGGATT
B7: AGACGUU (DNA:RNA)
RNA: B1 RNA with C25A, U27A, A29G, A30U, G31U
DNA 1: CAATCTGAATTCCGGTCTCCC
DNA 2: TGGTGGCTACGACGGGATT
B8: AUAUUGU (DNA:RNA)
RNA: B4 RNA with G25A, C27A, A28U, G29U, U30G, A31U
DNA 1: CAATCTGAATTCCGGTCTCCC
DNA 2: TGGTGGCTACGACGGGATT
B9: UCUAUCG (DNA:RNA)
RNA: B1 RNA with C25U, G26C, C28A, A29U, A30C
DNA 1: CAATCTGAATTCCGGTCTCCC
DNA 2: TGGTGGCTACGACGGGATT
B10: UCAAGUC (DNA:RNA)
RNA: B4 RNA with G25U, U26C, C27A, A31C
DNA 1: CAATCTGAATTCCGGTCTCCC
DNA 2: TGGTGGCTACGACGGGATT
B11: CUUUCCC (DNA:RNA)
RNA: B1 RNA with G26U, C28U, A29C, A30C, G31C
DNA 1: CAATCTGAATTCCGGTCTCCC
DNA 2: TGGTGGCTACGACGGGATT
B12: AAGAUAA (DNA:RNA)
RNA: B4 RNA with G25A, U26A, C27G, G29U, U30A
DNA 1: CAATCTGAATTCCGGTCTCCC
DNA 2: TGGTGGCTACGACGGGATT
B13: UUCAUAC (DNA:RNA)
RNA: B4 RNA with G25U, G29U, U30A, A31C
DNA 1: CAATCTGAATTCCGGTCTCCC
DNA 2: TGGTGGCTACGACGGGATT
B14: CCAGUGA (DNA:RNA)
RNA: B1 RNA with G26C, U27A, C28G, A29U, A30G, G31A
DNA 1: CAATCTGAATTCCGGTCTCCC
DNA 2: TGGTGGCTACGACGGGATT
B15: CUUUUCU (DNA:RNA)
RNA: B1 RNA with G26U, C28U, A29U, A30C, G31U
DNA 1: CAATCTGAATTCCGGTCTCCC
DNA 2: TGGTGGCTACGACGGGATT
B16: CGGGAAA (DNA:RNA)
RNA: B1 RNA with U27G, C28G, G31A
DNA 1: CAATCTGAATTCCGGTCTCCC
DNA 2: TGGTGGCTACGACGGGATT
B17: GUCCAAG (DNA:RNA)
RNA: B1 RNA with C25G, G26U, U27C
DNA 1: CAATCTGAATTCCGGTCTCCC
DNA 2: TGGTGGCTACGACGGGATT
B18: GACGCUU (DNA:RNA)
RNA: B4 RNA with U26A, A28G, G29C, A31U
DNA 1: CAATCTGAATTCCGGTCTCCC
DNA 2: TGGTGGCTACGACGGGATT
B19: GACGAAG (DNA:RNA)
RNA: B1 RNA with C25G, G26A, U27C, C28G
DNA 1: CAATCTGAATTCCGGTCTCCC
DNA 2: TGGTGGCTACGACGGGATT
B20: AUCCGCA (DNA:RNA)
RNA: B4 RNA with G25A, A28C, U30C
DNA 1: CAATCTGAATTCCGGTCTCCC
DNA 2: TGGTGGCTACGACGGGATT

Where a chain is given by its changes, count along the chain named. Some of the results follow.

This assay concerns the target T1, RBFOX1 RRM. As to the kind of experiment: EMSA; HiTS-Eq, 1 nM pool, 10 min; buffer printed only for the single-RNA assays: 10 mM Tris pH 7.5, 150 mM NaCl, 3.4 mM EDTA, 0.001% NP-40, 30 C. The settings on record: tags: His6 N-terminal (pET28a); label: 5' 32P. The method, boiled down: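 Purified wild-type or mutant RbFox RRM at increasing concentrations was equilibrated with 1 nM of 5′-radiolabelled RNA carrying 7 randomized nucleotides for 10 min in 50 µL. Unbound RNA was separated by 8% native PAGE and sequenced. Relative association constants came from read-count changes of each RNA species compared with the control reaction, normalised to the cognate motif.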
On to B1, for which the binding signal was 0.0065 KA relative to UGCAUGU.

Turning to B2, the binding signal was 0.00527 KA relative to UGCAUGU.

In the case of B3, the binding signal is 0.0122 KA relative to UGCAUGU.

In the case of B4, the binding signal is 0.0111 KA relative to UGCAUGU.

Turning to B5, the binding signal is 0.0129 KA relative to UGCAUGU.

With B6, the binding signal is 0.0109 KA relative to UGCAUGU.

Consider B7, for which the binding signal was 0.00953 KA relative to UGCAUGU.

As for B8, the binding signal is 0.00748 KA relative to UGCAUGU.

For the molecule B9, the binding signal is 0.00758 KA relative to UGCAUGU.

B10: the binding signal was 0.00662 KA relative to UGCAUGU.

As to B11, the binding signal is 0.00374 KA relative to UGCAUGU.

In the case of B12, the binding signal was 0.000269 KA relative to UGCAUGU.

Take B13: the binding signal is 0.00199 KA relative to UGCAUGU.

Consider B14, for which the binding signal is 0.00741 KA relative to UGCAUGU.

On to B15, for which the binding signal was 0.0114 KA relative to UGCAUGU.

Turning to B16, the binding signal is 0.022 KA relative to UGCAUGU.

In the case of B17, the binding signal is 0.0109 KA relative to UGCAUGU.

Regarding B18, the binding signal is 0.0162 KA relative to UGCAUGU.

Turning to B19, the binding signal was 0.0143 KA relative to UGCAUGU.

For B20, the binding signal is 0.00554 KA relative to UGCAUGU.
